Laboratory results taken from the supplement of paper PMC12645437, “Orthogonal IMiD-Degron Pairs Induce Selective Protein Degradation in Cells” (ACS Chemical Biology, 2025).
The list shows a part of the results.

B1: Q9UKT9 (peptide)
chain: FACPVCGAVFTQKGNLLRHIKL
B2: Q9UKT9 (peptide)
chain: FDCEICGACFTQKGNLLRHIKL
B3: Q9UKT9 (peptide)
chain: FWCNQCGRKFTQKGNLLRHIKL
B4: Q9UKT9 (peptide)
chain: LACEICGFMCTQKGNLLRHIKL
B5: Q9UKT9 (peptide)
chain: FDCNQCGHWFTQKGNLLRHIKL
B6: Q9UKT9 (peptide)
chain: LWCNQCGFACTQKGNLLRHIKL
B7: Q9UKT9 (peptide)
chain: FECEVCGACFTQKGNLLRHIKL
B8: Q9UKT9 (peptide)
chain: FVCEQCGAHFTQKGNLLRHIKL
B9: Q9UKT9 (peptide)
chain: FDCDQCGATFTQKGNLLRHIKL
B10: Q9UKT9 (peptide)
chain: FNCSVCGHGFTQKGNLLRHIKL
B11: Q9UKT9 (peptide)
chain: FACNQCGADFTQKGNLLRHIKL
B12: Q9UKT9 (peptide)
chain: LQCPICGFVCTQKGNLLRHIKL
B13: Q9UKT9 (peptide)
chain: FECDQCGARFTQKGNLLRHIKL
B14: Q9UKT9 (peptide)
chain: LNCNQCGFSCTQKGNLLRHIKL
B15: Q9UKT9 (peptide)
chain: FRCPICGRHFTQKGNLLRHIKL
B16: Q9UKT9 (peptide)
chain: FRCPICGHKFTQKGNLLRHIKL
B17: Q9UKT9 (peptide)
chain: FNCNVCGASFTQKGNLLRHIKL
B18: Q9UKT9 (peptide)
chain: FVCEICGHFFTQKGNLLRHIKL
B19: Q9UKT9 (peptide)
chain: FMCNQCGHIFTQKGNLLRHIKL
B20: Q9UKT9 (peptide)
chain: FSCNQCGRHFTQKGNLLRHIKL
B21: Q9UKT9 (peptide)
chain: FDCSVCGHYFTQKGNLLRHIKL
B22: Q9UKT9 (peptide)
chain: FTCNVCGAMFTQKGNLLRHIKL
B23: Q9UKT9 (peptide)
chain: FMCEICGHWFTQKGNLLRHIKL
B24: Q9UKT9 (peptide)
chain: FYCEVCGATFTQKGNLLRHIKL
B25: Q9UKT9 (peptide)
chain: FCCDVCGASFTQKGNLLRHIKL
B26: Q9UKT9 (peptide)
chain: FVCPQCGAHFTQKGNLLRHIKL
B27: Q9UKT9 (peptide)
chain: LICNQCGFICTQKGNLLRHIKL
B28: Q9UKT9 (peptide)
chain: FHCEICGAKFTQKGNLLRHIKL
B29: Q9UKT9 (peptide)
chain: FMCPQCGATFTQKGNLLRHIKL
B30: Q9UKT9 (peptide)
chain: FRCNQCGHKFTQKGNLLRHIKL
B31: Q9UKT9 (peptide)
chain: LRCEICGFHCTQKGNLLRHIKL
B32: Q9UKT9 (peptide)
chain: FQCPICGHLFTQKGNLLRHIKL
B33: Q9UKT9 (peptide)
chain: FACEQCGAIFTQKGNLLRHIKL
B34: Q9UKT9 (peptide)
chain: FWCEVCGAPFTQKGNLLRHIKL
B35: Q9UKT9 (peptide)
chain: FECPICGREFTQKGNLLRHIKL
B36: Q9UKT9 (peptide)
chain: LLCPICGFVCTQKGNLLRHIKL
B37: Q9UKT9 (peptide)
chain: FYCNVCGAVFTQKGNLLRHIKL
B38: Q9UKT9 (peptide)
chain: FGCPICGAGFTQKGNLLRHIKL
B39: Q9UKT9 (peptide)
chain: FLCNICGAFFTQKGNLLRHIKL
B40: Q9UKT9 (peptide)
chain: FACNICGAMFTQKGNLLRHIKL
B41: Q9UKT9 (peptide)
chain: FFCNVCGARFTQKGNLLRHIKL
B42: Q9UKT9 (peptide)
chain: FACPICGAKFTQKGNLLRHIKL
B43: Q9UKT9 (peptide)
chain: FRCPICGRDFTQKGNLLRHIKL
B44: Q9UKT9 (peptide)
chain: FQCDVCGAEFTQKGNLLRHIKL
B45: Q9UKT9 (peptide)
chain: LRCEICGFGCTQKGNLLRHIKL
B46: Q9UKT9 (peptide)
chain: FGCEQCGAKFTQKGNLLRHIKL
B47: Q9UKT9 (peptide)
chain: FWCNQCGRVFTQKGNLLRHIKL
B48: Q9UKT9 (peptide)
chain: FWCEICGRWFTQKGNLLRHIKL
B49: Q9UKT9 (peptide)
chain: LICEICGFKCTQKGNLLRHIKL
B50: Q9UKT9 (peptide)
chain: FMCEICGRGFTQKGNLLRHIKL

Target: no compound (DMSO)
Assay: log2 fold change of degron read counts, EGFP-low vs EGFP+ sorted cells; higher = lower degron-EGFP level without compound (poor expression or instability)
Conditions: compound: DMSO control; 18 h
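Note: jurkat cells carrying a lentiviral library of mutant zinc finger degrons fused to EGFP plus mCherry, mCherry+ cells FACS sorted, degron abundance counted by next-generation sequencing.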

| Sequence | log2 fold change of degron read counts |
| --- | --- |
| B1 | -0.172 |
| B2 | -1.82 |
| B3 | 0.604 |
| B4 | 0.353 |
| B5 | 1.98 |
| B6 | 1.97 |
| B7 | -1.98 |
| B8 | -1.6 |
| B9 | -2.04 |
| B10 | -0.23 |
| B11 | -1.4 |
| B12 | 0.771 |
| B13 | -2.62 |
| B14 | 0.0907 |
| B15 | 0.527 |
| B16 | -0.799 |
| B17 | -0.884 |
| B18 | -0.482 |
| B19 | 0.377 |
| B20 | -0.175 |
| B21 | 1.12 |
| B22 | -0.643 |
| B23 | -0.484 |
| B24 | -0.52 |
| B25 | -1.92 |

| Sequence | log2 fold change of degron read counts |
| --- | --- |
| B26 | -0.453 |
| B27 | 1.13 |
| B28 | -1.4 |
| B29 | -0.689 |
| B30 | 0.163 |
| B31 | -0.0882 |
| B32 | -0.016 |
| B33 | -1.25 |
| B34 | -0.117 |
| B35 | -1.67 |
| B36 | 1.46 |
| B37 | -0.544 |
| B38 | 0.421 |
| B39 | 0.494 |
| B40 | -0.703 |
| B41 | -0.52 |
| B42 | -0.855 |
| B43 | -0.687 |
| B44 | -2.72 |
| B45 | -0.0919 |
| B46 | -1.2 |
| B47 | 1.21 |
| B48 | 1.63 |
| B49 | -0.678 |
| B50 | -1.46 |
